Assay results published in article PMC4336329 (PLoS ONE, 2015).
The campaign covered roughly 310,000 compounds. About 2,200 (0.71%) showed an effect of 50% or more. Effects have a minus sign here. This is one part of the list.

Biological target: human ether-à-go-go-related gene (hERG) potassium channel (human, UniProt Q12809)
Test: primary screen, population patch clamp on CHO cells stably expressing hERG

Sequence of human ether-à-go-go-related gene (hERG) potassium channel (Q12809 whole entry, looked up): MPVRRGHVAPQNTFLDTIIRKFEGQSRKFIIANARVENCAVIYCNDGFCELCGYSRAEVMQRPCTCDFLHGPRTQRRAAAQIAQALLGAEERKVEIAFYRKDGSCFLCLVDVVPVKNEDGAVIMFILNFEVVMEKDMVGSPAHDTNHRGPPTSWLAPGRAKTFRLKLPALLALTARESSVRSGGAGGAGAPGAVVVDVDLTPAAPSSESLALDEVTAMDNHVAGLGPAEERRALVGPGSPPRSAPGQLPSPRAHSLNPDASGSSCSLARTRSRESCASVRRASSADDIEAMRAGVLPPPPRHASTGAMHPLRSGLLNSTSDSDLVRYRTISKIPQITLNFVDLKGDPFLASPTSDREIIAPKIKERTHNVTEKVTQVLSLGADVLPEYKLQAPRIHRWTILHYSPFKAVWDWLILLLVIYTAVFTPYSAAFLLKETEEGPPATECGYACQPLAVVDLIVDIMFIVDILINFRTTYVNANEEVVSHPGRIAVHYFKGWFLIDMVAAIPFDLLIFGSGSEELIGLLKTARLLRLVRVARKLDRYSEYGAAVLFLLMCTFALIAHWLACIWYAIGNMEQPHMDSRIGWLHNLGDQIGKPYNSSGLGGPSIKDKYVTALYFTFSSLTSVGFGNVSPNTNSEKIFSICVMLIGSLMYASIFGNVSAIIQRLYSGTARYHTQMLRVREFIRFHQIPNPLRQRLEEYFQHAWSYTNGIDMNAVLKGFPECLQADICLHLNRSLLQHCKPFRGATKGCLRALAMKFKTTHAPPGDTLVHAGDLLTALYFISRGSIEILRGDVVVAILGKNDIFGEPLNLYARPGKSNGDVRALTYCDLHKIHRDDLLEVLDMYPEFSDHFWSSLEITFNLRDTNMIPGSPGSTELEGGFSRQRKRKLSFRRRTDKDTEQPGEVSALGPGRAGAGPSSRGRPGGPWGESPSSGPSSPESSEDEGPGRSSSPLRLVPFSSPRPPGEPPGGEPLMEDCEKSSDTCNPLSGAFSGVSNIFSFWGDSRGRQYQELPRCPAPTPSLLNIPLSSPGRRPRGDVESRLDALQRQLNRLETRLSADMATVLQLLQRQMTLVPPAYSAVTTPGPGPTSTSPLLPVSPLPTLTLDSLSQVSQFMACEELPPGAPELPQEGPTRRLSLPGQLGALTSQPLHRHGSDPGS

Row | SMILES | hERG current change (%, negative = inhibition) at 1uM [%]
1 | CCOC(=O)N1CCN(S(=O)(=O)c2ccc(C)c([N+](=O)[O-])c2)CC1 | 11.9
2 | Cc1nn2c(Nc3ccccc3)c3c(nc2c1-c1ccccc1)CCC3 | 3.9
3 | CCOC(=O)c1c(C)oc2ccc(OCC(=O)C(C)(C)C)cc12 | 16.8
4 | O=C(NC(=S)Nc1nc(-c2ccc(Br)cc2)cs1)c1ccco1 | 17.7
5 | COc1cc(/C=C2\C(=O)NN(c3ccccc3)C2=O)cc([N+](=O)[O-])c1O | 9.39
6 | COC(=O)c1ccc(NCCc2csc(-c3ccc(C)cc3)n2)c([N+](=O)[O-])c1 | 5.9
7 | CCCOc1cc(C)c(S(=O)(=O)N2CCOCC2)cc1C | 13.1
8 | CC1CN(c2ncnc3c2c(-c2ccccc2)cn3-c2ccc(F)cc2)CC(C)O1 (centres unmarked) | 6.97
9 | CN(C(=O)COC(=O)CNC(=O)c1cccs1)c1c(N)n(Cc2ccccc2)c(=O)[nH]c1=O | 6.15
10 | CCOc1ccccc1Nc1nc(N2CCCC2)nc(N2CCOCC2)n1 | 17.2
11 | COc1ccc(CCNC(=O)c2cc(-c3ccc(C)c(C)c3O)n[nH]2)cc1OC | 14.9
12 | C=CCOC(=O)C1=C(C)NC(SC)=C(C#N)C1c1ccc(OCC)cc1 (centres unmarked) | 9.22
13 | CCn1nnc(NC(=O)COc2ccc([N+](=O)[O-])cc2)n1 | 11.1
14 | COC(=O)c1cc2ccsc2n1CC(=O)Nc1cc(Cl)ccc1OC | 8.46
15 | COc1cnc(-c2ccccc2)nc1Oc1cccc(C)c1 | 0.018
16 | CN1CCN(NC(=O)Nc2ccc([N+](=O)[O-])cc2)CC1 | 8.13
17 | CCOC(=O)[C@@H]1[C@H]2COc3ccccc3[C@H]2N2C(=O)N(c3ccccc3)C(=O)[C@]12C | 9.44
18 | CCC(C)(c1nnnn1-c1c(C)cccc1C)N(N=O)c1ccccc1Cl (centres unmarked) | 6.35
19 | CC(=O)c1c(C)[nH]c(C(=O)N2CCCC(C)C2)c1C (centres unmarked) | 12
20 | O=C(CCc1nc2ccccc2c(=O)[nH]1)Nc1nnc(SCc2ccc(F)cc2)s1 | 12.3
21 | Cc1cccc(-c2nsc(SCC(=O)N3CCCC3)n2)c1 | 9.55
22 | CC(C)c1cccc(C(C)C)c1NC(=O)CNCc1ccccc1F.O=C(O)C(=O)O | -9.14
23 | O=C(NCc1ccc(F)cc1)c1cc2ccccc2o1 | 18.1

Row | SMILES | hERG current change (%, negative = inhibition) at 1uM [%]
24 | CSc1ccc(Cl)c(C(=O)N(C)CC(=O)Nc2ccc(N3CCOCC3)cc2)c1 | 12.6
25 | CC(CNC1CCCCC1)OC(=O)c1ccccc1.Cl (centres unmarked) | -3.23
26 | O=C(NC(Cc1c[nH]c2ccccc12)C(=O)N/N=C/c1cccnc1)c1cccs1 (centres unmarked) | -0.0775
27 | CC(OC(=O)CNS(=O)(=O)c1ccc(C#N)cc1)C(=O)Nc1cccc(C#N)c1 (centres unmarked) | -2.9
28 | Cc1ccc(C(=O)N2CCCC(Nc3ccc(F)cc3)C2)cc1C (centres unmarked) | -0.167
29 | COc1cccc(CN(C)CC(=O)Nc2cc3oc4ccccc4c3cc2OC)c1 | 1.23
30 | NNC(=O)c1csc(-c2ccc(C(F)(F)F)cc2Cl)n1 | 9.45
31 | Nn1c(SCC(=O)Nc2ccc(F)cc2F)nnc1-c1cccnc1 | 20.7
32 | O=C(c1ccco1)N1CCN(C(=O)c2cc(Cl)nc3ccccc23)CC1 | -8.33
33 | COc1ccc(CSCC(=O)N/N=C/c2ccccc2O)cc1 | 7.14
34 | CC(C)Cn1c(SCC(=O)NCc2ccc(Cl)cc2)nnc1-c1cccc(S(=O)(=O)N2CCOCC2)c1 | -12.9
35 | Oc1ccc2ccccc2c1CNc1ccc(Br)cn1 | 12.7
36 | O=C(Nc1cnn(Cc2ccc(F)cc2)c1)c1cnccn1 | 8.36
37 | COc1ccc(OC)c(NC(=S)Nc2ccccc2)c1 | 14.1
38 | O=C(COc1cccc(Oc2ccccc2)c1)Nc1ccc(SC(F)F)cc1 | 11.7
39 | COc1ccccc1NC(=O)c1cc2c(CO)cnc(C)c2oc1=Nc1cccc(C(N)=O)c1 | 22.4
40 | CCN(CC(=O)Nc1cccc(S(=O)(=O)N(C)c2ccccc2)c1)Cc1ccccc1 | 4
41 | CCCCN1C(=O)Nc2ccccc2S1(=O)=O | -11.6
42 | Cc1ccc(-n2c(C)cc(/C=N/NC(=O)c3ccncc3)c2C)cc1C | 8.17
43 | CN(C)c1ccc(NC(=O)c2ccc(Cn3cc([N+](=O)[O-])cn3)cc2)cc1 | 5.16
44 | CCOC(=O)N1CCN(Cc2nc3cc(NC(C)=O)ccc3n2CC)CC1 | 13.4
45 | O=C(NCc1nnc(SCC(=O)N2CCOCC2)o1)c1cccs1 | 7.46
46 | Cc1ccc(-c2nc(CS(=O)CC(=O)NCc3ccc4c(c3)OCO4)c(C)o2)cc1 (centres unmarked) | 1.76

Row | SMILES | hERG current change (%, negative = inhibition) at 1uM [%]
47 | Cc1cc(Cl)cc(C)c1OCC(=O)O | 13.7
48 | COc1ccccc1C(=O)N/N=C(\C)c1ccc(NC(=O)C2CC2)cc1 | 5.66
49 | O=C(Nc1nnc(C2CC2)s1)c1cccnc1Oc1ccc(Cl)cc1 | 13.6
50 | Nc1c(NC(=O)CC[n+]2ccccc2)cccc1[N+](=O)[O-].[Cl-] | -3.55
51 | CCCCOc1ccc(-c2cnc3ccccc3n2)cc1 | 18
52 | Fc1ccc(CN2CCSCC2)cc1Br | 0.438
53 | CCOCCCNC(=S)N1CCN(CC)CC1.O=C(O)C(=O)O | 18.1
54 | CCOCCOc1cccc(C(=O)NC(c2ccccc2)C(C)C)c1 (centres unmarked) | -1.14
55 | Cc1cc(OC(C)C(=O)N2CCN(c3ccc(F)cc3)CC2)c2c(C)c(C)c(=O)oc2c1 (centres unmarked) | -8.37
56 | COc1ccccc1C(=O)OCC(=O)Nc1cc(S(=O)(=O)N2CCOCC2)ccc1N1CCCC1 | 12
57 | CCN(CC(=O)Nc1ccccc1OC)CC(=O)Nc1ccccc1C(F)(F)F | 4.99
58 | O=C1C(=O)N(CCS(=O)(=O)c2ccccc2)c2ccc(F)cc21 | 6.93
59 | Cc1ccc(S(=O)(=O)NCCC(c2ccccc2)c2ccco2)cc1 (centres unmarked) | 13.3
60 | Cc1cccc(N2CCN(C(=O)/C=C/c3cccs3)CC2C)c1 (centres unmarked) | 2.11
61 | O=C(O)C(=O)O.c1ccc(COc2cccc(CN3CCCCC3)c2)cc1 | 8.85
62 | CCN(CC(=O)NC1CC1)S(=O)(=O)c1ccccc1 | 10.3
63 | Cc1onc(-c2ccccc2Cl)c1C(=O)N1CCC(Cc2ccccc2)CC1 | 14
64 | Fc1ccc(NC(=S)Nc2ccc(Cl)cc2Cl)cc1 | 9.24
65 | COc1ccc(C2CC(c3ccccc3)=NN2C(=O)CN2CCN(Cc3ccccc3)CC2)cc1 (centres unmarked) | 5.15
66 | CCN(CC)S(=O)(=O)c1ccc(-n2c(=O)c(C(C)C)c(C)n2C)cc1 | 17
67 | CCCOc1ccc(-c2nc(-c3ccc(N)cc3)cs2)cc1 | 9.76
68 | CN(CCOc1ccccc1)C(=O)c1ccc(N2CCCC2)c([N+](=O)[O-])c1 | 10.6
69 | CN1CCC(N(C)C(=O)/C(C#N)=C/c2ccccc2)CC1.Cl | 14.2

Row | SMILES | hERG current change (%, negative = inhibition) at 1uM [%]
70 | CCC(=O)N1N=C(c2cccs2)CC1c1ccco1 (centres unmarked) | 9.49
71 | O=C(NCCN1CCOCC1)C1CC(=O)N(c2ccc(Cl)cc2)C1 (centres unmarked) | 15.4
72 | S=C(NC12CC3CC(CC(C3)C1)C2)N1CCCC1 | 13.5
73 | CCN(CC)c1ccc(C(=O)NNC(=O)C2CSC3(C)CCC(=O)N23)cc1 (centres unmarked) | 5.2
74 | O=C(Nc1nccs1)c1ccc(S(=O)(=O)NCC2CCCCC2)cc1 | 3.75
75 | CC(Oc1ccc(F)cc1)C(=O)Nc1ccccc1C(=O)N1CCCCC1 (centres unmarked) | 4.71
76 | C=CCc1cc(C=O)cc(OCC)c1O | 6.77
77 | N#CCC(=O)Nc1cc(C(F)(F)F)ccc1N1CCOCC1 | 9.49
78 | CCC(C(=O)O/N=C(\N)c1ccc(C)cc1)c1ccccc1 (centres unmarked) | 6.84
79 | COc1ccc(C2C(C(C)=O)=C(O)C(=O)N2CCc2ccccc2)c(OC)c1 (centres unmarked) | 6.24
80 | Cc1ccc(NC(=O)CCNS(=O)(=O)c2ccc3[nH]c(=O)oc3c2)c(C)c1 | 14.2
81 | Cc1ccc(N2C(=O)CC(=O)NC2=O)cc1Cl | 11.4
82 | C=CCOc1c(Cl)cc(C(=S)N2CCCC2)cc1OCC | 9.22
83 | COc1ccc(-c2c(C)n([O-])c3c([n+]2=O)CCCCC3)cc1OC | 16.6
84 | O=C1NCCCCC1NS(=O)(=O)c1ccc(F)c(F)c1 (centres unmarked) | 9.71
85 | COC(=O)CC1C(=O)NCCN1Cc1cn(-c2ccc(C)cc2)nc1-c1cccc(C)c1 (centres unmarked) | 8.32
86 | COc1ccc(C(C)=O)cc1COc1cccc2c1OC(C)(C)C2 | 3.79
87 | O=C(NC(=S)NCc1ccccc1)c1ccc(Br)cc1 | 8.85
88 | O=S(=O)(c1ccc(Cl)c(F)c1)N1CCC(c2nc(-c3ccncc3)no2)CC1 | -5.01
89 | O=C(CSc1nc(-c2ccccc2)cc(C(F)(F)F)n1)N1CCOCC1 | 11.6
